# Assay results reported in paper PMC4336329 (PLoS ONE, 2015).
# The whole screen tested about 310,000 compounds, of which about 14,000 (4.5%) showed an effect of 50% or more. The effect is printed as a negative number. The list shows a part of the results.
# Target: human ether-à-go-go-related gene (hERG) potassium channel (human, UniProt Q12809)
# Test: primary screen, population patch clamp on CHO cells stably expressing hERG
# 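Note: peak tail current of the secondary pulse compared with the same well before compound.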
# Sequence of human ether-à-go-go-related gene (hERG) potassium channel (Q12809 whole entry, looked up): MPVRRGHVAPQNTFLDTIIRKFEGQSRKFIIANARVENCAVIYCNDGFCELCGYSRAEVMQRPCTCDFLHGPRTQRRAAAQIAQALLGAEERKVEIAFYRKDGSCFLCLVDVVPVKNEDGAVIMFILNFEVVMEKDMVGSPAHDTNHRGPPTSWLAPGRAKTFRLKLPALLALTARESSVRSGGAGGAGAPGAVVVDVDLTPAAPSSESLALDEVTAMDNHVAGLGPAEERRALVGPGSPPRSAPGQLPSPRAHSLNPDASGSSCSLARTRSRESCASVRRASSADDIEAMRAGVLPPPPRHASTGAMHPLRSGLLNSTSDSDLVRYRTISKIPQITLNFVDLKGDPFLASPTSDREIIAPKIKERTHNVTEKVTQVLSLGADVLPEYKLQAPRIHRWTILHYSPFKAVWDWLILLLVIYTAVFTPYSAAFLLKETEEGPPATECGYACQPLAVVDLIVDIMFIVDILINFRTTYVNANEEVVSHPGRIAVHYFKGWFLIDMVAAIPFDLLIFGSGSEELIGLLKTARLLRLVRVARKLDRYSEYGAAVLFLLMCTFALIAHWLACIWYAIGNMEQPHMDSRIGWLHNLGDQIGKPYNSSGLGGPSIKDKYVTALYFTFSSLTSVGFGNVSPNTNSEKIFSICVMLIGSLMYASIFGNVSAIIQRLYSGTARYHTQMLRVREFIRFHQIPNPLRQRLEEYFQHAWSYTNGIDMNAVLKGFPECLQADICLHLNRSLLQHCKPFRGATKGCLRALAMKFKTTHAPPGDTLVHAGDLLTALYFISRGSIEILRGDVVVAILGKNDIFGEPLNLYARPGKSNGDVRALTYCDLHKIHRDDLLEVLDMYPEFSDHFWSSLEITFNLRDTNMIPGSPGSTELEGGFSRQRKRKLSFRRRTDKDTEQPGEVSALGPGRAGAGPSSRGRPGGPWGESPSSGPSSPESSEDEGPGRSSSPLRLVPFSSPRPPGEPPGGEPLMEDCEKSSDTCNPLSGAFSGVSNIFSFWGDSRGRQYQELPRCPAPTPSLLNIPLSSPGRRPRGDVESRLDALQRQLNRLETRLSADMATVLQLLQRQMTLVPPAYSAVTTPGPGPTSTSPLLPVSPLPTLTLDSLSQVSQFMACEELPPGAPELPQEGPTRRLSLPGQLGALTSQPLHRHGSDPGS
row,Compound,"hERG current change (%, negative = inhibition) at 10uM [%]"
1,COc1cc(CNc2ccc3[nH]c(=O)[nH]c3c2)cc(Br)c1OCC(=O)NC(C)(C)C,3.64
2,CCc1ccc(N(CC(=O)NC(C)(C)CC)C(=O)CCC(=O)Nc2nccs2)cc1,-8.86
3,COc1cccc(C(=O)N2CCN(C(=O)COc3ccc4ccccc4c3)CC2)c1,-47.4
4,COc1ccc(O)c(CN2CCN(C/C=C/c3ccccc3)CC2)c1,-51.9
5,COCCOc1cc(NC(=O)CS(=O)(=O)CC(=O)N(C)C)c(Cl)cc1Cl,3.42
6,Cc1cc(/C=N/NC(N)=S)c(C)n1-c1ccc(Br)cc1,5.38
7,O=c1cc(CN2CCOCC2)c2c(ccc3ccccc32)o1,-14.2
8,O=C(c1ccc(Cl)nc1)c1cccs1,17.8
9,COc1ccc(C(C(=O)NC(C)(C)C)N(CCc2ccc(OC)c(OC)c2)C(=O)CCC(=O)Nc2cc(C)on2)cc1 (centres unmarked),4.64
10,CCNc1nc(Cl)nc(NC2CCCCC2)n1,-2.08
11,Cc1ccc(S(=O)(=O)N(C)C)cc1NC(=O)c1cccnc1Oc1ccccc1,8.62
12,CC1=NN(C(=O)c2ccc(Br)cc2)C(O)(C(F)(F)OC(F)(F)F)C1 (centres unmarked),10
13,CN(CC(=O)Nc1ccccc1Cl)C(=O)c1ccc(N2CCCCCC2)c([N+](=O)[O-])c1,-20.2
14,O=C(Nc1ccc2c(c1)OCO2)N1CCN(C/C=C/c2ccccc2)CC1,-15.4
15,Cn1ncc2cc(NC(=S)NC(=O)c3ccccc3)ccc21,-10.3
16,Cc1ccn2c(Nc3ccccc3)c(-c3ccccn3)nc2c1,-10.8
17,CCOC(=O)CSc1nc(C)c2cc(C)c(C)cc2n1,4.38
18,Nc1ccc(S(=O)(=O)NC(=O)c2ccccc2)cc1,12.7
19,CN(CC(O)COc1c(F)cc(Br)cc1F)C1CCCCC1.Cl (centres unmarked),-65.9
20,COc1cc(OC)c(NC(=O)CCc2nc(-c3ccc(C)cc3)no2)cc1Cl,6.21
21,Cc1ccccc1C(=O)NNC(=O)c1cc(S(=O)(=O)N2CCOCC2)ccc1C,0.0364
22,CCCc1cc(=O)[nH]c(SCC(=O)NC(=O)c2ccccc2)n1,-2.69

row,Compound,"hERG current change (%, negative = inhibition) at 10uM [%]"
1,Cc1ccc(CCNC(=O)CCn2c(=O)c3cccn3c3ccc(F)cc32)cc1,-12.1
2,Fc1ccccc1-c1nc(NCc2ccccc2)c2ccccc2n1,0.633
3,CC(C)Oc1cccc(C(=O)C2CCCN(Cc3cccn3-c3ccccn3)C2)c1 (centres unmarked),-78.8
4,C/C(=N\Nc1nc(C)cc(-c2ccccc2)n1)c1ccccc1,18.2
5,Cc1cc([N+](=O)[O-])nn1CC(=O)NNC(=S)Nc1ccc(F)cc1,20.3
6,CC(NC(=O)c1cc(F)c(F)cc1Cl)c1ccncc1 (centres unmarked),1.1
7,CCc1ccc(N2Cc3ccccc3C2)cc1,4.69
8,Cc1c(C(=O)N(C)C)sc(NC(=O)c2cccc([N+](=O)[O-])c2)c1C#N,15.4
9,C=CC[C@H]1CC(C)=C[C@H](CC=C)N1C(=O)c1cc(COc2ccccc2SC)on1,7
10,O=C(CN1CC(c2ccccc2)CC1=O)Nc1ccc(F)cc1 (centres unmarked),-7.34
11,O=C(NN1CC(C(=O)OCc2ccccc2F)CC1=O)c1ccccc1 (centres unmarked),-56.8
12,CC(C)NS(=O)(=O)c1ccc(N2C(=O)c3ccccc3C2=O)cc1,-7.03
13,CC(C)CC(=O)NC(=S)Nc1nc(-c2ccc(Cl)cc2)cs1,-8.58
14,CC(=O)c1ccc(NC(=O)C2CCC(C)(C(=O)O)C2(C)C)cc1 (centres unmarked),-13.3
15,CCOc1ccccc1N1CCN(CC(=O)NC(=O)NCc2ccco2)CC1,9.94
16,C=CCn1c(SCC(=O)NC2CC2)nnc1C1CC1,20.7
17,COc1ccccc1NC(=O)c1c(Br)cnn1C,1.29
18,CC1CCN(Cc2c(C(=O)N/N=C/c3ccc(OC(C)C)cc3)nnn2-c2nonc2N)CC1,-4.52
19,COCCNC(=O)c1cccc(NS(=O)(=O)c2cccc3cccnc23)c1,-0.414
20,COC(=O)c1ccc(NC(=O)Cn2nc(-c3ccncc3)nc2SCC(=O)Nc2nccs2)cc1,-5.03
21,CCOc1ccccc1N(CC(=O)N1CCCCCC1)S(C)(=O)=O,11.8
22,CC(C)(C)OC(=O)N[C@@H](Cc1ccccc1)[C@H](O)c1ccco1,9.63
